According to the supplement of paper PMC11383711:
The other results are listed elsewhere or left out. Binding of human antibodies (heavy:light variable regions, tested as scFv in one mRNA-display pool) to influenza hemagglutinin, with or without the stem antibody CR9114 bound first. Score = (mean enrichment − median) / interquartile range of that screen; higher = more enriched, 0 = typical non-binder. Active = above the paper's cut-off per screen: stems 28; unblocked H1 Solomon Islands 5, H1 Michigan 3, H3 5, H5 19, H7 2.85, both B 5; blocked 9, 7, H5 10, H7 10, B Phuket 10, B Lee 11.5. Scores are scaled within each screen and are no affinities; replicates correlate at about 0.6 to 0.9, and antibodies rare in the pool are noisier.

B1: 039-10-5C05 (protein)
chain 1: QVQLVESGGGLVQPGRSLRLSCAASGFSLSTYPMHWVRQAPGKGLDWVATMSYDGSHKDYADSVKGRFTISTDTSKNTLYLQMNSLRTDDTAVYYCARPRGGGYNYFRADSFDSWGQGTLVTVSS
chain 2: DIQMTQSPSSLSASVGDRVTITCRTSQRVSTYLNWYQQKPGKSPKLLIYLASSLQSGVPSRFSGSGSGTDFSLTISSLQPEDFATYYCQQSYSMPLTFGGGTKVEIK
B2: R95-2G12 (protein)
chain 1: EVQLVESGGDLVQPGRSLRLSCAASGFSFDEYAMHWVRQPPGKGLEWVSGINWDGHSMAYADSVKGRFTISRDNAKNSLYLQMHSLRPEDTAFYYCAKSSYGLVAPNWFDPWGPGTLVTVSS
chain 2: DIQMTQSPSSLSASVGDRVTITCRASQSIISYLNWYQQKPGKAPKLLIYDASILQGGVPSRFSGSGSGTDFTLTISGVQPEDFATYYCQQSYSAPVSFGQGTKLDIK
B3: AG13-3F04 (protein)
chain 1: VQLVQSGAEMQKPGASVKVSCKASGFTFTGFYLHWVRQAPGQGLEWMGWINLNSGDTDTAQKFQGRVTMTSDTSISTAYMDLSSLKSDDTAVYYCATWYISGWYDGMDVWGQGTTVTVSS
chain 2: DIVMTQSPLSLPVTPGEAASISCRSSQSLLNTNGYTYLDWFLQKPGQSPQLLIYLGFNRASGVPDRFSGSGSGTYFTLKISRVEAEDVGVYYCMQALQTPRTFGQGTKVEIK
B4: antibody 3A03 (protein)
chain 1: VQLVESGGGLVQPGGSLRLSCAASGFSFSSYRMNWVRQAPGKGLQWVSYISQSGGTVYYADSVKGRFTISRDNAKNSLYLQMISLRDEDTAVYFCARDEWADDYGNYYLDYWGQGTLVTVSS
chain 2: EIVLTQSPATLSLSPGERATLSCRASQSVSSFLAWYQKKPGQAPRLLIYDAFNRATGVPARFSGSGSGTDFTLTISSLEPEDFAVYYCQQRSNWPPLTFGGGTKVEIK
B5: 008-10-5E02 (protein)
chain 1: EVQLVESGGGLVRPGGSLRLSCAASEINVRNVWMSWVRQAPGKGPEWVGRIKREKDGGTIDYAAPVKGRFTISRDASKNMLFLLMESLQTEDTAVYYCTTDFLESLLLGSGPPRETGHFDTWGQGTLVTVSS
chain 2: DIQMTQSPSSLSASVGDRVTITCRASQSISTYLNWYQRKPGKAPKFLIYAASNLQSGVPSRFSGSGSGTDFTLTISNLQPEDFATYYCQQSYSTPSWTFGQGTKVEIK
B6: 16.p.01 (protein)
chain 1: QVQLVQSGAEVKRPGASVNVSCKTSGYTFTDYYMHWVRQAPGQGLEWMGWINPNNGGTNYAQRFQGRVTMTRDTSLSTVYMELTSLRSDDTAVYYCATYYFESSGYFRLDYWGRGTLVTVSS
chain 2: DIQMTQSPSSLSASVGTRVPITSRASKSIARFLNRNQQKPGRAPKFMIYYASIWERGGPSRFSGGGSGTDFNFTISVLQPEDFATYYCQQSNSAPTTSGQGNKIEIK
B7: W85-2D08 (protein)
chain 1: QVQLVQSGAEVKKPGASVKVSCKASGYSFTTFDINWVRQATGQGLEWVGWMNPNSGNTGYAQKFQGRVSMTRNTSKSTAYMELSSLTSEDTAVYFCARGVGFCDTTSCYGSWFDPWGQGTLVTVSS
chain 2: EIVMTQSPATLSVSPGERATLSCWASQNVSSNLAWYQQKPGQAPRLLIYGATTRATGVPARFSGSGSRTEFTLTISSLQFEDFAVYYCQPYSNWRPITFGQGTRLEIK
B8: 240-14-IgG-2E03 (protein)
chain 1: QVQLQEWGAGLLKPSETLSLTCAVSGDSFSDYYWSWIRQPPGKGLEWIGEVYHDGSTNYNPSLKSRVTISIDTSKNQFSLKLTSVTAADTAVYFCARGVLGELTAIHFDYWGQGALVTVSS
chain 2: EIVMTQSPATLSVSPGERATLSCRASQSVSSLLVWYQQKPGQTPRLLIYGASTRAPGIPARFSGSGSGTEFTLTISSLQSEDFAVYYCQQWYTFGQGTKVEIK
B9: C1-2-E05 (protein)
chain 1: VQLVESGGGLVQPGGSLRLSCAASGFSFSLYSMNWVRQAPGKRLEWISYISSSSGTKLYADSVKGRLTTSRDNAKSSLYLQMTNLRPEDTAVYYCVREEVIVGGIPFDYWGQGALVTVSS
chain 2: EIVMTQSPSTLSVSPGARATLSCRASQSVGSSLAWYQQKPGQPPRLLIFGASTRATGVPARFSGSGYGTEFTLTISSLQSEDSAVYHCHQYHDWPPWTFGQGTKVEIK
B10: AG6-3E02 (protein)
chain 1: QLQESGPRLVRPSETLSLTCTVSGGSISSSTYYWGWIRQPPGKGLEWIGSVFYSGTTYKIPSLNSRVTISIDTSKKEFSLTLTSVTAADTAVYYCARHTYNRGSWFDHPWNYFYGMDIWGQGTTVTVSS
chain 2: DIQMTQSPSSLSASVGDRVTITCRASHNINNYLNWYQQKPGKPPKLLIYAASSLRSGVPSRFSGSGSETDFTLTISTLEPEDFVTYYCQQSFSTPFTFGQGTKVEIK
B11: K77-2E05 (protein)
chain 1: QVQLVQSGAEVKRPGASVKVSCKASGYTFTSHYVTWVRQAPGQGLEWMGPIIPSAGSISYAQKFQGRVVMTRDTSTSTVYMELSSLRSEDTAVYYCARVGVQVERELRYYGMDVWGQGTTVTVSS
chain 2: EIVLTQSPGTLSLSPGERATLSCRASQSVSSSYLAWYQQKPGQAPRLLIYGASSRATGVPDRFSGSGSGTDFILTISRLEPEDFAVYYCQQYGFSGTTFGQGTRLEI
B12: C6-C01 (protein)
chain 1: VQLVESGGGVVQPGKSLRLSCTASGFTFSSYAMHWVRQAPGKGLEWVAVVAYDGSNRYYVDSVKGRFTISRDNSKNTLYLQMNNIRPEDTAVYYCARVASMILVDIKYYFDYWGQGTLVTVSS
chain 2: EIVMTQSPATLSVSPGERATLSCRASQSVRSNLAWYQQKPGQAPRLLIYGASTRATGIPARFSGSGSGTEFTLTISSLQSDDFAVYHCQQYNEWPRTFGQGTKVEIK
B13: C1-2E01 (protein)
chain 1: VQLVESGGGGVRPGRSLRLSCAASGFNFEHYGMIWVRQVPGKGLEWVSAITWNGGDTYYVDSVRGRFTISRDNAKRSLFLQMNSLRVEDTAFYYCAREMRDPYDAFDLWGQGTMVTVSS
chain 2: DIQMTQSPSSLSASVGDRVTITCRASHNIGSYLNWYQQKPGKAPQLLIYASSILQTGVPSRFSGSGSGTDYTLTISGLQRDDFATYFCQQSSTNPKTFGQGTRLEIK
B14: 16.ND.92 (protein)
chain 1: EVQLVESGGGLVQPGGSLRLSCEASGFTLSSYWMHWVRQDPGKGLVWVAVINSDGSSTDYADFVKGRFTISRDNAKNTVYLQMNSLRAEDTAVYYCARAPQGTVFGVVIIGADGFDIWGQGTMVTVSS
chain 2: DIQMTHIPVSLSASVGDRVTITCRASQSISSWLAWYQQKPGKAPKLLIYKASTLESGVPSRFSGSGSGTDFTLTINSLQPDDFATYYCQHYNTYSRAWTFGQGTKVEVK
B15: K77-1D04 (protein)
chain 1: EVQLVESGGGVVQPGGSLRLSCGASGFTFSDYGMHWVRQAPGKGLEWVTYIRYDGSNEFYADSVKGRFTVSRDNSKNTLYLEMHSLRPEDTAVYFCANSALGYCSGENCPKFDFWGQGTLVTVSS
chain 2: QSALTQPASVSGSPGQSITISCTGTSFDVGGYNYVSWYQQHPGKAPKLIIYDVSERPSGISNRFSASKSGITASLTISGLQAEDEADYYCSSYTSSGTHWLFGGGTKLTVL
B16: 029-09-3A02 (protein)
chain 1: VQLVQSGAEVKKPGASVKVSCKASGYIFTGYYMEWVRQAPGQGLEWMGWINPNTGVTKYAQKFQGRVTMTRDTSLSTAYMELINLRSDDTAIYYCAKDRAWLVYDDGSDVWGQGTMVTVSS
chain 2: SYELTQPPSVSVSPGQTAIITCSGDILGDTYACWYQQKPGQSPVLVIYHDFKRPSGIPERFSGSNSGKTATLTITGTQAMDEADYFCQTWDGGALFGGGTKLTVL
B17: W85-1C11 (protein)
chain 1: EVQLVESGGGLVQPGGSLRLSCAASGFILSPYWMHWVRQAPGKGLVWVSRINSDGSNRNYADSVKGRFTISRDNAKNTLYLQMNSLRVEDTAVYYCARQGYYYDSSGYQDWFDPWGQGTLVTVSS
chain 2: SYELTQPPSVSVSPGQTARITCSGDALPKKYAYWYQQKSGQAPVLVIYEDTKRPSGIPQRFSGSSSGTMATLTISGAQVEDEADYYCYSTDSSGNHRVFVGGT
B18: C2-3-F04 (protein)
chain 1: VQLVESGGGVVQPGRSLRLSCAASGFSFRDFSMHWVRQAPGMGLEWVTLISYDGTNTFYADSVKGRFTISRDNSKNTLFLQLNSLRTEDTAVYYCARDYRHGLIDFWGQGTLVTVSS
chain 2: DVVMTQSPLSLPVPLGQPASISCRSSDSLVSVDGNTYLNWFQQRPGQSPRRLIYQVSNRDSGVPERFSGSGSDTDFTLKISRVEAEDVGVYYCMQGTYWPPITFGQGTRLEIK
B19: W85-3C05 (protein)
chain 1: EVQLVESGGGLVQPGGSLRLSCAASGFTVSSNYLSWVRQAPGKGLEWVSVIYGGGNTYYADSVKGRFTISRHNSKNTLYLQMNNLRAEDTAVYYCASHVLRFLEEGFDMWGQGTMVTVSS
chain 2: DIQMTQSPSSLSASVGDRVTITCRASQSISSYLNWYQQEPGKVPKLLIYSASSLHSGVPSRFSGSGSGTDFTLTISSLQPEDFATYYCQQTYSTSLTLGGGTKVEIK

target: H1 HA stem construct (mini-HA #4900); experiment: mRNA display binding score; higher = more enriched on the antigen; conditions: antigen blocked with: nothing
Description: (§1)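 A pool of natively paired antibodies, displayed as scFv on mRNA, was selected once on antigen-coated beads and sequenced before and after; two replicates.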

mRNA display binding score, inactive:
B1 -0.808
B2 -1.18
B3 0.431
B4 0.101
B5 0.826
B6 0.282
B7 -0.977
B8 0.687
B9 0.915
B10 -0.195
B11 -0.298
B12 0.817
B13 1.55
B15 -1.18
B16 0.54
B17 0.0292
B18 -0.513
B19 -0.798

mRNA display binding score, active:
B14 57.8

target: H3 HA stem construct (H3ssF); experiment: as above; conditions: antigen blocked with: nothing
Description: as §1

mRNA display binding score, inactive:
B1 -0.711
B2 -0.818
B3 -0.00154
B4 -0.312
B5 7.99
B6 0.196
B7 -0.908
B8 0.0201
B9 -0.0318
B10 0.468
B11 -0.111
B12 -0.215
B13 -0.431
B14 0.196
B15 0.612
B16 -0.127
B17 0.268
B18 -0.434
B19 -0.016
